Assay results published in the supplement of paper PMC4723716.
± gives the uncertainty stated by the source. In all, about 9,900 compounds were measured (“viability index relative to DMSO control”: median about 1, lowest 2% from about 0.85 on). The list shows a part of the results.

Each compound was assayed on Plasmodium falciparum NF54 stage V gametocytes (assay: viability index relative to DMSO control (fraction); higher = less gametocyte killing). Conditions: 2.5 µM, library set: Broad Institute DOS, incubation time: 72 h.
In short: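 Gametocytes (P. falciparum NF54, stage V) were treated with compound at 2.5 µM for 72 hr at 37°C in low oxygen, in serum-free medium at 0.75% gametocytemia and 1.25% hematocrit. Counts of 20–70 µm2 red particles, taken from one field per well after MitoTracker Red CMXRos with saponin, were divided by the plate mean of solvent-only wells. This ratio is the viability index.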
For `COc1ccc(NC(=O)Nc2cccc3c2O[C@@H](CN(C)Cc2ccc(C(=O)O)cc2)[C@@H](C)CN([C@H](C)CO)C3=O)cc1`, the viability index was 0.926 ± 0.066. With `C[C@@H]1CN([C@H](C)CO)C(=O)c2ccccc2-c2ccccc2CO[C@H]1CN(C)S(=O)(=O)c1ccc([N+](=O)[O-])cc1` the viability index was 0.938 ± 0.084. `O=C(Nc1ccc(F)cc1)N1[C@@H]2CNC[C@H]1[C@H]2c1ccc(-c2cccnc2)cc1` gave a viability index of 0.996 ± 0.053. For `Cc1cccc(S(=O)(=O)N[C@H]2CC[C@H](CCNC(=O)Nc3cc(F)ccc3F)O[C@H]2CO)c1`, the viability index was 1.04 ± 0.13. Work on `C[C@@H]1CCCCO[C@H](CN(C)Cc2ccc(C(F)(F)F)cc2)[C@@H](C)CN([C@@H](C)CO)C(=O)c2cc(NC(=O)Nc3cccc4ccccc34)ccc2O1` yielded a viability index of 1.11 ± 0.027. In the case of `O=C(Nc1ccccc1Cl)N1C[C@H]2[C@@H](c3ccccc31)[C@H](CO)N2C(=O)c1cccnc1`, the viability index is reported as 1.04 ± 0.017. Compound `COc1ccc2c3c([C@@H](CO)N(C[C@]33CN(C3)C(=O)Cc3ccccc3)C(=O)c3ccccn3)n(C)c2c1` has a viability index of 0.892 ± 0.075. `C/C=C/c1ccc([C@H]2[C@H](CO)N(C(C)=O)[C@H]2CNC(=O)c2ccccc2)cc1` gave a viability index of 1.1 ± 0.051. Compound `COC(=O)C[C@H]1CC[C@@H]2[C@@H](COc3ccc(NC(=O)Nc4cccc(C#N)c4)cc3C(=O)N2C)O1` has a viability index of 1.16 ± 0.11. Work on `C[C@@H]1CCCCO[C@H](CN(C)Cc2ccncc2)[C@H](C)CN([C@@H](C)CO)C(=O)c2cc(NC(=O)Cc3ccccc3)ccc2O1` yielded a viability index of 1.04 ± 0.024. `O=C(NCc1ccccc1)[C@@H]1[C@@H](CO)[C@@H]2Cn3c(cccc3=O)[C@H]1N2C(=O)Cc1ccccn1` was tested, and the viability index was 1.018 ± 0.0078. `COCC(=O)N1C[C@]2(CN(C2)S(C)(=O)=O)c2c([C@@H]1CO)n(C)c1cc(OC)ccc21` gave a viability index of 0.993 ± 0.14. `OC[C@@H]1[C@@H](c2ccccc2)C2(CN(CC3CCOCC3)C2)N1Cc1cncnc1` was tested, and the viability index was 1.08 ± 0.056. With `CC(=O)N1CCCCN2[C@H](C1)[C@H](c1ccc(-c3ccccc3)cc1)[C@@H]2CO` the viability index was 0.993 ± 0.083. Compound `OC[C@@H]1[C@H](c2ccc(-c3cccnc3)cc2)[C@@H]2CN(Cc3ccccn3)CCCCN12` has a viability index of 1.04 ± 0.06. `O=C(C[C@H]1CC[C@@H]2[C@H](COC[C@@H](O)CN2Cc2ccc(F)cc2)O1)NCCc1ccccc1` was tested, and the viability index was 1.058 ± 0.0038. `C[C@H]1CN([C@@H](C)CO)C(=O)CCCn2nncc2CO[C@H]1CN(C)C(=O)Nc1ccccc1C(F)(F)F` was tested, and the viability index was 1 ± 0.048. For `CC(C)CC#Cc1ccc([C@@H]2[C@H](CO)N3C(=O)CN(S(=O)(=O)c4cccc(F)c4)C[C@@H]23)cc1`, the viability index was 1 ± 0.054. `CN1C(=O)c2cc(NC(=O)c3cnccn3)ccc2OC[C@@H]2O[C@H](CC(=O)N[C@H]3CCN(Cc4ccccc4)C3)CC[C@@H]21` was tested, and the viability index was 0.913 ± 0.14. Compound `N#C[C@@H]1[C@H](c2ccccc2)[C@@H](CO)N1C(=O)c1cc(Cl)cc(Cl)c1` has a viability index of 1.1 ± 0.044. With `C/C=C/c1ccc2n(c1=O)C[C@H]1[C@H](CO)[C@@H](C(=O)NCCC)[C@@H]2N1Cc1ccccc1OC.C/C=C\c1ccc2n(c1=O)C[C@H]1[C@H](CO)[C@@H](C(=O)NCCC)[C@@H]2N1Cc1ccccc1OC` the viability index was 1.079 ± 0.0033. `COc1ccc(S(=O)(=O)N(C)C[C@@H]2Oc3ccc(NC(=O)Nc4ccc(C(F)(F)F)cc4)cc3C(=O)N([C@@H](C)CO)C[C@@H]2C)cc1` gave a viability index of 0.909 ± 0.049. Compound `CCNC(=O)[C@H]1[C@H](CO)[C@H]2Cn3c(cccc3=O)[C@H]2N1C(=O)CC1CC1` has a viability index of 1.08 ± 0.066. With `C[C@H](CO)N1C[C@H](C)[C@@H](CN(C)C(=O)Nc2ccc(C(F)(F)F)cc2)Oc2c(NC(=O)c3ccc(-c4nccs4)cc3)cccc2C1=O` the viability index was 0.953 ± 0.018. Work on `COc1ccc(C#Cc2ccc3c(c2)[C@H]2[C@H](CCN2C(=O)c2cnccn2)[C@H](CO)N3)cc1` yielded a viability index of 1.09 ± 0.038. In the case of `CO[C@H]1CC[C@H]2CCOc3c(C#N)cccc3C(=O)N(C)C[C@H](OC)[C@@H](C)C(=O)N(C)C[C@@H]1O2`, the viability index is reported as 1.05 ± 0.082. In the case of `COc1ccc(CN(C)C[C@H]2OCc3cnnn3CCCC(=O)N([C@@H](C)CO)C[C@@H]2C)cc1`, the viability index is reported as 1 ± 0.038. `O=C(C[C@H]1C=C[C@@H](NC(=O)Nc2ccccc2F)[C@H](CO)O1)NCc1ccc(-c2ccccc2)cc1` showed a viability index of 1.07 ± 0.026. `O=C(C[C@@H]1C=C[C@@H](NC(=O)CCN2CCCCC2)[C@@H](CO)O1)Nc1nccs1` showed a viability index of 0.966 ± 0.058. `O=C(NC[C@H]1[C@@H](c2ccccc2)[C@H](CO)N1C(=O)C1CCC1)NC1CCCC1` was tested, and the viability index was 1.09 ± 0.049. Compound `O=C(Nc1ccc(F)cc1)N1CC(=O)N2[C@@H](CO)[C@@H](c3ccc(C#Cc4cccnc4)cc3)[C@@H]2C1` has a viability index of 1.05 ± 0.024. `CC(C)NC(=O)N1CC(=O)N2[C@H](CO)[C@@H](c3ccc(/C=C/c4ccccc4)cc3)[C@@H]2C1` gave a viability index of 1.03 ± 0.035. `CO[C@H](CN(C)S(=O)(=O)c1ccc(C)cc1)[C@H](C)CN(C(=O)Nc1ccccc1F)[C@@H](C)CO` was tested, and the viability index was 0.986 ± 0.025. In the case of `O=C(NCC[C@H]1CC[C@H](NC(=O)c2ccncc2)[C@@H](CO)O1)Nc1ccc(Cl)cc1`, the viability index is reported as 1.06 ± 0.069. With `CO[C@@H]1CC[C@H]2CCN(C)C(=O)[C@H](C)N(C)C(=O)c3cccc(C#N)c3OC[C@H]1O2` the viability index was 0.999 ± 0.04. For `COc1ccc(NC(=O)N2CC(=O)N3[C@@H](CO)[C@H](c4ccc(Br)cc4)[C@@H]3C2)cc1`, the viability index was 1.06 ± 0.088. In the case of `C[C@@H]1CN([C@H](C)CO)C(=O)c2ccccc2-c2ccccc2CO[C@H]1CN(C)S(=O)(=O)c1cccc(C#N)c1`, the viability index is reported as 1.02 ± 0.083. Compound `COc1cccc(C(=O)Nc2ccc3c(c2)OC[C@H](C)N(CCc2ccccc2)C[C@H](C)[C@H](OC)CN(C)C3=O)c1` has a viability index of 1.05 ± 0.053. With `C[C@@H]1CN([C@@H](C)CO)S(=O)(=O)c2ccc(C#Cc3cccc(F)c3)cc2O[C@H]1CN(C)S(=O)(=O)c1cn(C)cn1` the viability index was 0.9366 ± 0.0027. For `CCS(=O)(=O)N1CC2(C1)[C@H](c1ccccc1)[C@H](CO)N2C(=O)c1ccccc1`, the viability index was 1.07 ± 0.07. For `COc1ccccc1-c1ccc([C@@H]2[C@H](CO)N(CC3CC3)C23CN(S(C)(=O)=O)C3)cc1`, the viability index was 1.03 ± 0.094. Work on `COCC(=O)N1CC[C@@H]2[C@H](CO)Nc3ccc(C#Cc4ccc(F)cc4)cc3[C@@H]21` yielded a viability index of 1.09 ± 0.049. For `O=C(N[C@@H]1CC[C@H](CCNS(=O)(=O)c2ccc(F)cc2)O[C@@H]1CO)C1CCC1`, the viability index was 1.13 ± 0.12. With `CCS(=O)(=O)N1Cc2cc(C(=O)N(C)C)nc(-c3cccc(-c4ccc(C#N)cc4)c3)c2[C@@H]1CCO` the viability index was 1.01 ± 0.035. `COc1ccc2c3c([nH]c2c1)[C@@H](CO)N(C[C@]31CCN(Cc2cc(on2)-c2ccccc2)CC1)C(C)=O` gave a viability index of 0.936 ± 0.02. Work on `COc1ccc(S(=O)(=O)N(C)C[C@H]2Oc3ccc(N(C)C)cc3CC(=O)N([C@@H](C)CO)C[C@@H]2C)cc1` yielded a viability index of 1.01 ± 0.074. Work on `O=C(Nc1ccccc1F)N[C@@H]1CC[C@H](CCNC(=O)C2CC2)O[C@@H]1CO` yielded a viability index of 1.068 ± 0.0055. `COc1cccc(C#Cc2ccc3c(c2)[C@H]2[C@H](CCN2C(=O)c2ccccc2F)[C@H](CO)N3)c1` was tested, and the viability index was 1.09 ± 0.023. `CCS(=O)(=O)Nc1ccc2c(c1)C(=O)N(C)[C@H]1CC[C@@H](CC(=O)N3CCN(C)CC3)O[C@@H]1CO2` gave a viability index of 1.08 ± 0.13. Work on `CCC(=O)N1[C@H](CO)[C@H]2c3ccccc3N(S(=O)(=O)c3ccc(F)cc3)C[C@H]21` yielded a viability index of 0.958 ± 0.067. Work on `CN1C[C@H](O)COC[C@@H]2O[C@H](CC(=O)NC3CCCC3)CC[C@H]21` yielded a viability index of 1.09 ± 0.066. `C[C@H]1CCCCO[C@H](CN(C)C(=O)NC2CCCCC2)[C@@H](C)CN([C@@H](C)CO)C(=O)c2cc(N(C)C)ccc2O1` was tested, and the viability index was 1.17 ± 0.098. For `C[C@@H]1CN([C@H](C)CO)C(=O)c2ccccc2-c2ccccc2CO[C@@H]1CN(C)S(=O)(=O)c1ccc([N+](=O)[O-])cc1`, the viability index was 0.969 ± 0.06. `CO[C@H]1CN(C)C(=O)c2cc(NC(=O)c3ccc(Oc4ccccc4)cc3)ccc2OC[C@@H](C)NC[C@H]1C` gave a viability index of 1.05 ± 0.043. For `COc1ccc(CN2C[C@]3(CN(C3)S(=O)(=O)c3ccc(C)cc3)c3c([nH]c4cc(OC)ccc34)[C@H]2CO)cc1`, the viability index was 0.793 ± 0.014. With `CS(=O)(=O)Nc1ccc2c(c1)[C@H]1C[C@@H](CC(=O)NCc3cc(F)ccc3F)O[C@H](CO)[C@H]1O2` the viability index was 1.04 ± 0.013. `C/C=C/c1ccc([C@@H]2[C@H]3CNC[C@@H]2N3C(=O)Nc2ccccc2Cl)cc1` was tested, and the viability index was 1.04 ± 0.051. Compound `COc1ccc(S(=O)(=O)N(C)C[C@@H]2Oc3c(NC(=O)c4nc5ccccc5s4)cccc3C(=O)N([C@H](C)CO)C[C@H]2C)cc1` has a viability index of 1.02 ± 0.054. `COC(=O)C[C@H]1CC[C@H]2[C@@H](COc3ccc(NC(=O)Nc4cccc(C#N)c4)cc3C(=O)N2C)O1` was tested, and the viability index was 1.138 ± 0.0038. Work on `COc1cccc(C(=O)Nc2ccc3c(c2)C(=O)N(C)[C@@H]2CC[C@@H](CC(=O)N[C@H](C)c4ccccc4)O[C@H]2CO3)c1` yielded a viability index of 1.15 ± 0.081. `Cc1ccc(-c2ccccc2[C@H]2[C@@H](C#N)N(S(C)(=O)=O)[C@@H]2CO)cc1` was tested, and the viability index was 1.11 ± 0.053. `Cc1cc(C(=O)Nc2ccc3c(c2)C(=O)N(C)[C@H]2CC[C@H](CC(=O)O)O[C@H]2CO3)no1` gave a viability index of 1.05 ± 0.027. `O=C(O)[C@@H]1[C@@H](CO)[C@@H]2Cn3c(ccc(/C=C/c4ccccc4)c3=O)[C@@H]2N1Cc1ccc2c(c1)OCO2` was tested, and the viability index was 1.08 ± 0.071. Compound `C[C@H](CO)N1C[C@H](C)[C@H](CN(C)C(=O)NC2CCCCC2)OCCCC[C@H](C)Oc2ccc(N(C)C)cc2C1=O` has a viability index of 0.9597 ± 0.0078. With `O=C(NC1CCCC1)N[C@H]1C=C[C@@H](CC(=O)N2CCOCC2)O[C@@H]1CO` the viability index was 1.2 ± 0.013. Work on `CO[C@@H](CN(C)C(=O)c1ccc2c(c1)OCO2)[C@H](C)CN([C@@H](C)CO)S(=O)(=O)c1ccc(Cl)cc1` yielded a viability index of 1.02 ± 0.018. For `CCCC#Cc1ccc([C@@H]2[C@H](CO)N3C(=O)CN(C(=O)Nc4cccc(F)c4)C[C@@H]23)cc1`, the viability index was 1.07 ± 0.074. For `O=C(N[C@@H]1CC[C@@H](CCNS(=O)(=O)c2ccc(F)cc2)O[C@H]1CO)C1CCC1`, the viability index was 1.15 ± 0.12. In the case of `COCC(=O)N1[C@H](CO)[C@H]2c3ccccc3N(C)C[C@H]21`, the viability index is reported as 1.08 ± 0.042.
